According to paper PMC10218450:
Results are given in words; binding and its absence hold for the method and conditions named. Binding seen in cells or lysates may run through a third protein. Some entries that bind do so weakly or less than the wild type. For some assays here: Sequences can lack the tags named with a protein.

T1: UBASH3A (human (endogenous in Jurkat)) (UniProt P57075)
T1 sequence: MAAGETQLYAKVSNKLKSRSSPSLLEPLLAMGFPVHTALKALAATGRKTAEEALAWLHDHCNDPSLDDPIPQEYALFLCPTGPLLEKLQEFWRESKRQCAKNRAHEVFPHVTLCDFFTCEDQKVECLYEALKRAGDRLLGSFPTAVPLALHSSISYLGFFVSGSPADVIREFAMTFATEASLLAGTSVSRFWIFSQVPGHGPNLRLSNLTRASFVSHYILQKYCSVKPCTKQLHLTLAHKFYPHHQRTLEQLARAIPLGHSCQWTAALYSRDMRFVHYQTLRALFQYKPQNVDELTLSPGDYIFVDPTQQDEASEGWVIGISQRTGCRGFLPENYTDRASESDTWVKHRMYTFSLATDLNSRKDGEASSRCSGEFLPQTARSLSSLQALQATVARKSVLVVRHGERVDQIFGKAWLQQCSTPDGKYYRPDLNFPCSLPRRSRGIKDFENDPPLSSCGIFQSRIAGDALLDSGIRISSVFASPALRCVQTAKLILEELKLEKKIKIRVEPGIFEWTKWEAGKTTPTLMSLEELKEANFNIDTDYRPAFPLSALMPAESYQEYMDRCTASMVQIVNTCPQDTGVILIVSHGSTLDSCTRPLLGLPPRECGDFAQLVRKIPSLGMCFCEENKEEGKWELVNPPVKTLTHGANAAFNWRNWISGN

T2: GST-tagged PGM (residues 316-623) domain of UBASH3A (human) (UniProt P57075)
T2 sequence: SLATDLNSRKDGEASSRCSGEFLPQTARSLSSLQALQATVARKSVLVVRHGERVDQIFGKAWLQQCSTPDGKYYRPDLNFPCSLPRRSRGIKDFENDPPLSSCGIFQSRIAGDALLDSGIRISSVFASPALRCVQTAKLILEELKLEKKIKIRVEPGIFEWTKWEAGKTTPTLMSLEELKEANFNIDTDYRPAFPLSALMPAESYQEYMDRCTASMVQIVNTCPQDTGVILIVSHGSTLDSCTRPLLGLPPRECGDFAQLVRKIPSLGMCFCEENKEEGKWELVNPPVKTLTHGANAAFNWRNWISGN

T3: GST-tagged SH3 (residues 241-300) domain of UBASH3A (human) (UniProt P57075)
T3 sequence: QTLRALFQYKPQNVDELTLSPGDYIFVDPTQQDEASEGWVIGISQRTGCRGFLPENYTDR

T4: GST-tagged UBA (residues 20-60) domain of UBASH3A (human) (UniProt P57075)
T4 sequence: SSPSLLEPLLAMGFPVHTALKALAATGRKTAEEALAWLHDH

T5: V5-tagged W279A UBASH3A (human) (UniProt P57075)
T5 sequence: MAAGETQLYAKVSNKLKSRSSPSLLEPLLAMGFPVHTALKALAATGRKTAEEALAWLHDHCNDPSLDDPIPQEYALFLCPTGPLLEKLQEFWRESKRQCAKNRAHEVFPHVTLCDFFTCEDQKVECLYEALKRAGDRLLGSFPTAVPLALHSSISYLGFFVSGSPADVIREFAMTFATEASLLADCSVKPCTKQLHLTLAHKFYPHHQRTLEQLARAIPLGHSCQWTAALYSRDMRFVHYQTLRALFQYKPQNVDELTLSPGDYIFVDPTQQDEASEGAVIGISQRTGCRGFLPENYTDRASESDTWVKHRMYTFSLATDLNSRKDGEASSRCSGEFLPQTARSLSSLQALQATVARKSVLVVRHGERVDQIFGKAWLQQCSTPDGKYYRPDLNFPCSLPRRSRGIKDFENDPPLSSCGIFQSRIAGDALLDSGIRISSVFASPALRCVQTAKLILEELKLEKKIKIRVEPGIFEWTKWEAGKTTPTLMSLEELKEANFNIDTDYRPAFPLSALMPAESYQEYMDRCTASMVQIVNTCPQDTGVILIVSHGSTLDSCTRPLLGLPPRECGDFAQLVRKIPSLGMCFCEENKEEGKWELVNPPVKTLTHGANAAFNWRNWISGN

T6: V5-tagged wild-type UBASH3A (human) (UniProt P57075)
T6 sequence: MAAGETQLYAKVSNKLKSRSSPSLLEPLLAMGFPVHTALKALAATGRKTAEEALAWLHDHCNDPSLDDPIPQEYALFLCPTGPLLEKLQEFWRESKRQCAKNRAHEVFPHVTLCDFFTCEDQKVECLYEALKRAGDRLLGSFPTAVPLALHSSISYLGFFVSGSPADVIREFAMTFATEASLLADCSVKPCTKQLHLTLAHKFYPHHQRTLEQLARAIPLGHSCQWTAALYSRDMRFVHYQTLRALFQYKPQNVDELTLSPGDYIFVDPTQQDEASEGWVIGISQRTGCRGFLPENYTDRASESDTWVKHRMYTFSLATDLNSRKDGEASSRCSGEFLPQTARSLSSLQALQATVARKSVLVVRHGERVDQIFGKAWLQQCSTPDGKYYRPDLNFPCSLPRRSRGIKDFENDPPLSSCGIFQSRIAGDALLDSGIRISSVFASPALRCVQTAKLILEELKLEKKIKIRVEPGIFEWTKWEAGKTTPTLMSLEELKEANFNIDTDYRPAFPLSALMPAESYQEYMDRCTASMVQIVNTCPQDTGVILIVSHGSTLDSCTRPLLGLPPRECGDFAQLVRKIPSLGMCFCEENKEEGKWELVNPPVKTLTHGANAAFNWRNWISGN


Assays:
[1] = molecular target: T1, UBASH3A (human (endogenous in Jurkat)); assay: co-IP; Jurkat whole-cell lysate (EBC lysis buffer: 50 mM Tris-HCl pH 7.5, 120 mM NaCl, 0.5% NP-40, 1 mM EDTA) immunoprecipitated with anti-UBASH3A or IgG, 4 h or overnight at 4 °C, Protein G Dynabeads; blot with anti-PTPN22
[2] = molecular target: T2, GST-tagged PGM (residues 316-623) domain of UBASH3A (human); assay: pull-down; GST or GST-tagged UBASH3A domains at the same molar concentration on Glutathione Sepharose 4B with 1 mg precleared lysate of unstimulated Jurkat cells, 2 h at 4 °C, four washes with EBC lysis buffer; blot with anti-PTPN22; only the target purified
[3] = molecular target: T3, GST-tagged SH3 (residues 241-300) domain of UBASH3A (human); assay: as above
[4] = molecular target: T4, GST-tagged UBA (residues 20-60) domain of UBASH3A (human); assay: as above
[5] = molecular target: T5, V5-tagged W279A UBASH3A (human); assay: co-IP; HEK293T co-transfected with FLAG-tagged PTPN22 and V5-tagged UBASH3A; lysates immunoprecipitated with anti-V5, Protein G Dynabeads, 4 °C; blot with anti-FLAG
[6] = molecular target: T6, V5-tagged wild-type UBASH3A (human); assay: as above

binding [1]	binding [3]	binding [5]	binding [6]	Binder	binding [2]	binding [4]
binds	binds			PTPN22 (protein, UniProt Q9Y2R2 1-807) MDQREILQKFLDEAQSKKITKEEFANEFLKLKRQSTKYKADKTYPTTVAEKPKNIKKNRYKDILPYDYSRVELSLITSDEDSSYINANFIKGVYGPKAYIATQGPLSTTLLDFWRMIWEYSVLIIVMACMEYEMGKKKCERYWAEPGEMQLEFGPFSVSCEAEKRKSDYIIRTLKVKFNSETRTIYQFHYKNWPDHDVPSSIDPILELIWDVRCYQEDDSVPICIHCSAGCGRTGVICAIDYTWMLLKDGIIPENFSVFSLIREMRTQRPSLVQTQEQYELVYNAVLELFKRQMDVIRDKHSGTESQAKHCIPEKNHTLQADSYSPNLPKSTTKAAKMMNQQRTKMEIKESSSFDFRTSEISAKEELVLHPAKSSTSFDFLELNYSFDKNADTTMKWQTKAFPIVGEPLQKHQSLDLGSLLFEGCSNSKPVNAAGRYFNSKVPITRTKSTPFELIQQRETKEVDSKENFSYLESQPHDSCFVEMQAQKVMHVSSAELNYSLPYDSKHQIRNASNVKHHDSSALGVYSYIPLVENPYFSSWPPSGTSSKMSLDLPEKQDGTVFPSSLLPTSSTSLFSYYNSHDSLSLNSPTNISSLLNQESAVLATAPRIDDEIPPPLPVRTPESFIVVEEAGEFSPNVPKSLSSAVKVKIGTSLEWGGTSEPKKFDDSVILRPSKSVKLRSPKSELHQDRSSPPPPLPERTLESFFLADEDCMQAQSIETYSTSYPDTMENSTSSKQTLKTPGKSFTRSKSLKILRNMKKSICNSCPPNKPAESVQSNNSSSFLNFGFANRFSKPKGPRNPPPTWNI	no binding (tested: 22.9 mg of GST-tagged PGM)	no binding (tested: 11.6 mg of GST-tagged UBA)
		binds	binds	FLAG-tagged wild-type PTPN22 (protein, UniProt Q9Y2R2 1-807) MDQREILQKFLDEAQSKKITKEEFANEFLKLKRQSTKYKADKTYPTTVAEKPKNIKKNRYKDILPYDYSRVELSLITSDEDSSYINANFIKGVYGPKAYIATQGPLSTTLLDFWRMIWEYSVLIIVMACMEYEMGKKKCERYWAEPGEMQLEFGPFSVSCEAEKRKSDYIIRTLKVKFNSETRTIYQFHYKNWPDHDVPSSIDPILELIWDVRCYQEDDSVPICIHCSAGCGRTGVICAIDYTWMLLKDGIIPENFSVFSLIREMRTQRPSLVQTQEQYELVYNAVLELFKRQMDVIRDKHSGTESQAKHCIPEKNHTLQADSYSPNLPKSTTKAAKMMNQQRTKMEIKESSSFDFRTSEISAKEELVLHPAKSSTSFDFLELNYSFDKNADTTMKWQTKAFPIVGEPLQKHQSLDLGSLLFEGCSNSKPVNAAGRYFNSKVPITRTKSTPFELIQQRETKEVDSKENFSYLESQPHDSCFVEMQAQKVMHVSSAELNYSLPYDSKHQIRNASNVKHHDSSALGVYSYIPLVENPYFSSWPPSGTSSKMSLDLPEKQDGTVFPSSLLPTSSTSLFSYYNSHDSLSLNSPTNISSLLNQESAVLATAPRIDDEIPPPLPVRTPESFIVVEEAGEFSPNVPKSLSSAVKVKIGTSLEWGGTSEPKKFDDSVILRPSKSVKLRSPKSELHQDRSSPPPPLPERTLESFFLADEDCMQAQSIETYSTSYPDTMENSTSSKQTLKTPGKSFTRSKSLKILRNMKKSICNSCPPNKPAESVQSNNSSSFLNFGFANRFSKPKGPRNPPPTWNI		
		binds	binds	FLAG-tagged R620W PTPN22 (protein, UniProt Q9Y2R2 1-807) MDQREILQKFLDEAQSKKITKEEFANEFLKLKRQSTKYKADKTYPTTVAEKPKNIKKNRYKDILPYDYSRVELSLITSDEDSSYINANFIKGVYGPKAYIATQGPLSTTLLDFWRMIWEYSVLIIVMACMEYEMGKKKCERYWAEPGEMQLEFGPFSVSCEAEKRKSDYIIRTLKVKFNSETRTIYQFHYKNWPDHDVPSSIDPILELIWDVRCYQEDDSVPICIHCSAGCGRTGVICAIDYTWMLLKDGIIPENFSVFSLIREMRTQRPSLVQTQEQYELVYNAVLELFKRQMDVIRDKHSGTESQAKHCIPEKNHTLQADSYSPNLPKSTTKAAKMMNQQRTKMEIKESSSFDFRTSEISAKEELVLHPAKSSTSFDFLELNYSFDKNADTTMKWQTKAFPIVGEPLQKHQSLDLGSLLFEGCSNSKPVNAAGRYFNSKVPITRTKSTPFELIQQRETKEVDSKENFSYLESQPHDSCFVEMQAQKVMHVSSAELNYSLPYDSKHQIRNASNVKHHDSSALGVYSYIPLVENPYFSSWPPSGTSSKMSLDLPEKQDGTVFPSSLLPTSSTSLFSYYNSHDSLSLNSPTNISSLLNQESAVLATAPRIDDEIPPPLPVWTPESFIVVEEAGEFSPNVPKSLSSAVKVKIGTSLEWGGTSEPKKFDDSVILRPSKSVKLRSPKSELHQDRSSPPPPLPERTLESFFLADEDCMQAQSIETYSTSYPDTMENSTSSKQTLKTPGKSFTRSKSLKILRNMKKSICNSCPPNKPAESVQSNNSSSFLNFGFANRFSKPKGPRNPPPTWNI		
